# Test results taken from patent US20230287131A1 (ORIONIS BIOSCIENCES, published 2023).
# T1: soluble hTNF-R2 (Peprotech) (human, UniProt P20333 23-257)
# T1 construct: extracellular domain; also called p75
# T1 sequence (looked up): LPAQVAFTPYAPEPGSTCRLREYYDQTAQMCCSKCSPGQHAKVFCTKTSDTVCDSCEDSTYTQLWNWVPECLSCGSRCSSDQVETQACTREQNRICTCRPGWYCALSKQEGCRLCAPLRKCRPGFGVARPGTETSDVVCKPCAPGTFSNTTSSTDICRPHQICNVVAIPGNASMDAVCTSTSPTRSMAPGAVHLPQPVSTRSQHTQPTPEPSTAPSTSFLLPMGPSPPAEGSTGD
# T2: soluble hTNF-R1 (Peprotech) (human, UniProt P19438 30-211)
# T2 construct: extracellular domain; also called p55
# T2 sequence (looked up): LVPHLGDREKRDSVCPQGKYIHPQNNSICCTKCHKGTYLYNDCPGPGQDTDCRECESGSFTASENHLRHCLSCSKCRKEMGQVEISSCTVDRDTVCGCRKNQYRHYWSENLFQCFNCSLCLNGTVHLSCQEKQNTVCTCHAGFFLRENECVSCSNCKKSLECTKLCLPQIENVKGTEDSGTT
# B1: hTNF wild type (N-terminal 6xHis tag) (ligand)
# chain: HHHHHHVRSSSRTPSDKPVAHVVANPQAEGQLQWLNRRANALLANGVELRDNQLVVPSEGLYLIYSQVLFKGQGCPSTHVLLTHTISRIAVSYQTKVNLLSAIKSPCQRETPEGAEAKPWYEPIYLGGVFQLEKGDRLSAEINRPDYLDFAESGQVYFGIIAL
# notes: also called WT; WT hTNF
# B2: hTNF mutant A145R (N-terminal 6xHis tag) (ligand)
# chain: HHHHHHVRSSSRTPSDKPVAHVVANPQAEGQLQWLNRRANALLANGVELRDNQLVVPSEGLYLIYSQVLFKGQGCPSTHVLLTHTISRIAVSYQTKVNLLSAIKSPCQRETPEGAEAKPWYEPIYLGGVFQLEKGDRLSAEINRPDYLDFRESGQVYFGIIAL
# notes: also called His-TNF mutant
# B3: hTNF mutant A145T S147D (N-terminal 6xHis tag) (ligand)
# chain: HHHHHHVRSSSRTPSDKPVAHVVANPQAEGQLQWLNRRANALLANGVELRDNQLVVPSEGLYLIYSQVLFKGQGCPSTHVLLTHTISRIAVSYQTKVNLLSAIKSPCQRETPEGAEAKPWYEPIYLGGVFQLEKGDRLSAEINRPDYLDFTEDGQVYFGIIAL
# B4: hTNF mutant D143N A145R (N-terminal 6xHis tag) (ligand)
# chain: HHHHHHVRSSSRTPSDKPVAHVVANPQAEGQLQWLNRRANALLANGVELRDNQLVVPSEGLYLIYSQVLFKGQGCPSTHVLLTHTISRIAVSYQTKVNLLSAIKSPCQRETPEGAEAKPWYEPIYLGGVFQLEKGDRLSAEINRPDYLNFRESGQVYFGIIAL
# B5: hTNF mutant E146K (N-terminal 6xHis tag) (ligand)
# chain: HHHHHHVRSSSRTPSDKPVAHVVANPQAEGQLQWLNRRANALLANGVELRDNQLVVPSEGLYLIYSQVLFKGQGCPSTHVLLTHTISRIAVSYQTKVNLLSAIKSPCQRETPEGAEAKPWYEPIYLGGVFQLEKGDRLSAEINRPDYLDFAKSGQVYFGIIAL
# notes: also called His-TNF mutant
# B6: hTNF mutant L29S (N-terminal 6xHis tag) (ligand)
# chain: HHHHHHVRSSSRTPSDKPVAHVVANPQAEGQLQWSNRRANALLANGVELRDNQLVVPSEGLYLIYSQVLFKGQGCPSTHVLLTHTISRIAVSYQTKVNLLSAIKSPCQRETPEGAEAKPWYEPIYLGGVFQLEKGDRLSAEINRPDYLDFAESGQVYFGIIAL
# B7: hTNF mutant L29S R32W (N-terminal 6xHis tag) (ligand)
# chain: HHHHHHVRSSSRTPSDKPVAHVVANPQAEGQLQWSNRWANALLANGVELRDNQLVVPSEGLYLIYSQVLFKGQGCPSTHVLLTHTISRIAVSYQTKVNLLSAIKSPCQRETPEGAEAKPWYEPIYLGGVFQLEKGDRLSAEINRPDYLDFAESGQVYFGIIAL
# notes: also called L29 R32W
# B8: hTNF mutant S86T (N-terminal 6xHis tag) (ligand)
# chain: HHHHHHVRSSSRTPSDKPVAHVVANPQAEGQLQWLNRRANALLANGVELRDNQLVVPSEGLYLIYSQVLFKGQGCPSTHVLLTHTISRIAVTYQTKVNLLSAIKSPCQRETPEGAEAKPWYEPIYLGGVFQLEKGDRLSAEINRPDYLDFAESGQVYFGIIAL
# B9: hTNF mutant Y87H (N-terminal 6xHis tag) (ligand)
# chain: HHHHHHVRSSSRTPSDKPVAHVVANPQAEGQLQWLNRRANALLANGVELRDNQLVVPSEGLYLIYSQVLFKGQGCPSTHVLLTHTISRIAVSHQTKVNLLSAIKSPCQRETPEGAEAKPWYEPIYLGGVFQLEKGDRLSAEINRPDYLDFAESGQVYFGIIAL
# B10: hTNF mutant R32W E146K (N-terminal 6xHis tag) (ligand)
# chain: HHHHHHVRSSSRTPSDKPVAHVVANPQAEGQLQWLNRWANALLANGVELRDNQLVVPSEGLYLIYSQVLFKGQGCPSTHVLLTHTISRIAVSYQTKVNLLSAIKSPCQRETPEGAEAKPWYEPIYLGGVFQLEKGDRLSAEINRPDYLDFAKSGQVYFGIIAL
# B11: hTNF mutant R32W S86T (N-terminal 6xHis tag) (ligand)
# chain: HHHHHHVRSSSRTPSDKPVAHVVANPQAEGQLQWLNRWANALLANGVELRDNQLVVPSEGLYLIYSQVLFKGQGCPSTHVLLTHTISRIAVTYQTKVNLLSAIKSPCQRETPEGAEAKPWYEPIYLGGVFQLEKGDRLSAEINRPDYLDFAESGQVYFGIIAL
# notes: also called His-TNF mutant
# B12: hTNF mutant Y87F (N-terminal 6xHis tag) (ligand)
# chain: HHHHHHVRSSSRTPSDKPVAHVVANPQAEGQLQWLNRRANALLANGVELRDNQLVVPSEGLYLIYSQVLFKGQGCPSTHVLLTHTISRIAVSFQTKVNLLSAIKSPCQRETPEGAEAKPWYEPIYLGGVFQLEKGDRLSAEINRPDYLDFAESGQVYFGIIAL
# Molecular target: T1, soluble hTNF-R2 (Peprotech)
# Assay: BLI (Octet RED96), His-tagged TNF on HIS1K biosensor, soluble receptor in solution, 1:1 global fit
# Procedure: (§1) KD values were calculated using global fitting with a 1:1 model (R²≥0.95).
row,Kd [nM],Binder
1,23.7,B1
2,44,B2
3,7.36,B3
4,138,B4
5,4810,B5
6,130,B6
7,1260,B7
8,220,B8
9,214,B9

# Molecular target: T2, soluble hTNF-R1 (Peprotech)
# Assay: as above
# Procedure: as §1
row,Kd [nM],Binder
1,10.2,B1
2,57.9,B5
3,45.3,B6
4,33.4,B7
5,68.5,B10
6,46.3,B11
7,24.7,B8
8,116,B12
9,65.1,B9

# Molecular target: T2, soluble hTNF-R1 (Peprotech)
# Assay: BLI (Octet RED96), affinity relative to WT hTNF
# Procedure: as §1
row,% WT R1 [%],Binder
1,17.7,B5
2,22.6,B6
3,30.6,B7
4,15,B10
5,22.1,B11
6,41.5,B8
7,8.84,B12
8,15.7,B9
